Data from publication PMC4336329 (PLoS ONE, 2015).
Among all 310,000 compounds or so, about 2,200 (0.71%) showed an effect of 50% or more. The effect is printed as a negative number. The list shows a part of the results.

Target: human ether-à-go-go-related gene (hERG) potassium channel (human, UniProt Q12809)
Assay: primary screen, population patch clamp on CHO cells stably expressing hERG

Chain of human ether-à-go-go-related gene (hERG) potassium channel (Q12809 whole entry, looked up): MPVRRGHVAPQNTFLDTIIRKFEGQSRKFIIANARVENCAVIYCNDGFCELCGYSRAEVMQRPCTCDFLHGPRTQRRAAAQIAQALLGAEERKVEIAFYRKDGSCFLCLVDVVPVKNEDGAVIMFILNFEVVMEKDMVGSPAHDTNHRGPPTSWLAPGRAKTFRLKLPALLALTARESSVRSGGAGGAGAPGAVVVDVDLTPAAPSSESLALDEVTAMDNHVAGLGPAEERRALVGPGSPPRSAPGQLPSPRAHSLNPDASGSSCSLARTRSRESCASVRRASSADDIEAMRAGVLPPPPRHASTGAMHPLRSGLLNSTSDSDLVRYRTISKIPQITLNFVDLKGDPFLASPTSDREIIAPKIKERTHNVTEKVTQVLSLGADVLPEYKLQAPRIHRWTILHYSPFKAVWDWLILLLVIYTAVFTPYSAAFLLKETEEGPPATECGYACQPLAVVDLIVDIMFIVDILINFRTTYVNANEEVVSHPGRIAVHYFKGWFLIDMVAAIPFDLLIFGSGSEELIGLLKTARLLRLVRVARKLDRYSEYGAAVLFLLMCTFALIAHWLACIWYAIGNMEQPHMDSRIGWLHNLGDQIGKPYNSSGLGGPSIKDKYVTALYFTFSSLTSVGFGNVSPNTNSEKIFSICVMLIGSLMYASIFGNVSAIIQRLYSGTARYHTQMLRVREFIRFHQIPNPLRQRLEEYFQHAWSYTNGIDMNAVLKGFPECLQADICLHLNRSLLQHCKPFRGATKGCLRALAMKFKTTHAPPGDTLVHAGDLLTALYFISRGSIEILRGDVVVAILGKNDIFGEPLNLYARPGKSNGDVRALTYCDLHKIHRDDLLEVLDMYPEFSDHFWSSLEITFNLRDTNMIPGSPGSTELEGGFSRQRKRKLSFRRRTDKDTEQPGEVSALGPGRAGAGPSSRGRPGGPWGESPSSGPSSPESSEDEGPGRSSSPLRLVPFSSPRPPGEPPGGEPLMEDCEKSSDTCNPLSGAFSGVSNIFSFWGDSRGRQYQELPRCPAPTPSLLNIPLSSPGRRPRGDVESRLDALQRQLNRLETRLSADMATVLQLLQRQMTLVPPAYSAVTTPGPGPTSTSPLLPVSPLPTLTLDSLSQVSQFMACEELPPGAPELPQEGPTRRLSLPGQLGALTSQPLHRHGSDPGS

Row | Structure (SMILES) | hERG current change (%, negative = inhibition) at 1uM
1 | Cc1nn(C(=O)c2ccco2)c(C)c1Sc1ccc(Cl)cc1 | 23.8%
2 | COCc1ccc(CN2CCC(n3nccc3NC(=O)CCOc3ccccc3)CC2)o1 | 14.1%
3 | CCOc1cc(CN2CCC(n3nccc3NC(=O)C3CC3)CC2)ccc1O | 5.94%
4 | Cc1cc(=O)[nH]c2nnc(-c3ccc(Cl)cc3)n12 | 11.3%
5 | COc1ccc(N=C2S/C(=C\c3ccco3)C(=O)N2CC(C)C)cc1 | 11.3%
6 | COc1ccc(OCC(=O)NCc2ccc(Cl)cc2)cc1 | 8.82%
7 | C=CCOC(=O)C1=C[C@H](C2CC2)[C@@H](CCCO)[C@H](OCC)O1 | 19.2%
8 | CCC(CC)C(=O)Nc1cc(=O)n(C)c(=O)n1C | 7.2%
9 | CN(C)Cc1c(C(=O)N/N=C/c2cccc(OCc3ccccc3)c2)nnn1-c1nonc1N | 12.3%
10 | CN=c1c([N+](=O)[O-])nn(-c2ccc3c(c2)OCCO3)n1O | 11.9%
11 | Cc1oc2c(c(C)cc3oc(=O)c(CC(=O)N[C@@H](CC(C)C)C(=O)O)c(C)c32)c1C | 11.7%
12 | CC(C)CC(COCc1cccc(Cl)c1)N1CCN(C(=O)c2cccc(C(F)(F)F)c2)CCC1=O (stereo not drawn) | -7.64%
13 | CCOC(=O)N1CCN(C(=O)Cn2nc(-c3ccc(Cl)cc3)ccc2=O)CC1 | -5.5%
14 | O=C(O)CCSc1nnc(-c2ccccc2)n1-c1ccccc1 | 6.47%
15 | Cc1ccc(NC(=O)Nc2ccccc2)c(Br)c1 | 13.7%
16 | COc1ccccc1C(=O)NC1CC2CCC(C1)N2Cc1ccccc1 (stereo not drawn) | -2.2%
17 | NC(=O)CC[C@H](NC(=O)[C@H](Cc1ccccc1)n1c(=O)[nH]c2ccccc2c1=O)C(=O)N1CCC[C@H]1C(=O)O | -4.77%
18 | CN(Cc1ccccc1)C(=O)COC(=O)COc1ccc(C#N)cc1 | 0.86%
19 | CCCOC(=O)c1ccc(NC(=O)C(=O)NCCN(CC)CC)cc1 | -13.3%
20 | CCCCN1C(=O)N(C)C2C1N(C)C(=O)N2CCCC (stereo not drawn) | 4.27%
21 | CCS(=O)(=O)N1CCC(C(=O)NC2CCCCCCC2)CC1 | 2.8%
22 | Cc1ccc(N/C=C/C(=O)c2cccs2)cc1C | 11.5%
23 | Cc1[nH]c2ccccc2c1C1=CN2CCS(=O)(=O)N=C2S1 | 10.1%

Row | Structure (SMILES) | hERG current change (%, negative = inhibition) at 1uM
24 | Cc1cc(C)c2nc(N(CCCN(C)C)C(=O)c3ccc4c(c3)OCCO4)sc2c1.Cl | 1.3%
25 | Cc1ccc(C2(C(F)(F)F)NC(=O)N3C(=C2C#N)Nc2ccccc23)cc1 (stereo not drawn) | 11.5%
26 | COC(=O)CN1C(=O)C(O)(CC(=O)c2ccc(C)cc2)c2ccccc21 (stereo not drawn) | 13.1%
27 | Cc1ccc(Cn2c(SCC(C)C)nc3c2c(=O)n(C)c(=O)n3C)cc1 | 6.92%
28 | O=C(O)c1c(NC(=O)N2CCCC2)sc2c1CCCC2 | 19.2%
29 | O=C(Cn1ccccc1=O)NCc1ccc(F)cc1 | 11.3%
30 | CC(=O)c1sc(NC(=O)c2ccc(F)c(S(=O)(=O)N3CCOCC3)c2)nc1C | 14.1%
31 | CCC(C)c1ccc(O)c(NC(=O)c2ncn[nH]2)c1 (stereo not drawn) | 17.9%
32 | CC(=O)c1ccc(S(=O)(=O)NCCC(=O)OCC(=O)N(Cc2ccccc2)C(C)(C)C)cc1 | 4.73%
33 | CCNc1ccc(N=Nc2c(C)n(C)n(-c3ccccc3)c2=O)cc1 | 7.24%
34 | COc1ccc(CCNc2cc(C)nc3c(-c4ccccc4OC)cnn23)cc1OC | 13.1%
35 | Cc1ccc(NC(=O)CSc2nnc(CNC(=O)c3ccco3)n2C)c(C)c1 | -2.53%
36 | CCCCn1c(=O)c2ccccc2c2ccccc2c1=O | 8.74%
37 | O=c1[nH]c(Cc2ccccc2)nc2c1oc1ccccc12 | 8.74%
38 | COCCNC(=O)c1ccc2c(=O)n(Cc3ccco3)c(SCC(=O)Nc3ccc(OC)cc3OC)nc2c1 | 10.8%
39 | O=C(O)C1CCN(S(=O)(=O)c2ccc(N3CCC(O)CC3)c([N+](=O)[O-])c2)CC1 | 16.8%
40 | O=C(NCCN1CCOCC1)c1cc(-c2ccccc2)on1 | 11%
41 | N#CC1=C(N)Oc2c(c(=O)oc3ccccc23)C1c1cccnc1 (stereo not drawn) | 8.95%
42 | O=c1c2ccc(Cl)cc2[nH]c(=S)n1CCCN1CCOCC1 | 4.95%
43 | CCN(CC)c1ccc(/C=N/N=C(N)N)c(O)c1 | -1.15%
44 | CCCCN(CCCC)CCNC(=O)c1ccc2nc(-c3ccccc3NC(C)=O)c(=O)[nH]c2c1 | 13.6%
45 | O=C(NCc1ccco1)C1CCCN(S(=O)(=O)c2ccc(-n3cnnn3)cc2)C1 (stereo not drawn) | -26.8%
